Consider one molecule from publication PMC7044329.

These are yes or no findings as the source states them, for the method shown. Binding seen in cells or lysates may run through a third protein. Where a sequence is shown, tags or fusion partners need not be part of it.

The target in test [1] is T1, FLAG-tagged CBP20 (recombinant) (UniProt P52298).
T1 sequence: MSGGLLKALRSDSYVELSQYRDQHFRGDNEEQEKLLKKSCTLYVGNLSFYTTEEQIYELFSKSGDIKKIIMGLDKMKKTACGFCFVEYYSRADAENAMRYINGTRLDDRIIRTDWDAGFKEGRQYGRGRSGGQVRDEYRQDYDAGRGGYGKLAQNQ
The test is described as follows: pull-down; in vitro binding assay with baculovirally expressed FLAG-tagged SLBP, CBP80, CBP20 and HA-tagged ICE1-NL (1-1190); which was held is not told.

Test [2] addresses FLAG-tagged SLBP (recombinant) (UniProt Q14493). The test is described as above.

B1: HA-tagged N-terminal fragment of ICE1 (NL: 1-1190) (domain or fragment, UniProt Q9Y2F5 1-1190)
chain: MMPGETHSAAPGTAADLSRCQGCASLQQNLNEYVEALITLKQKIINTDNLLTEYQKKCDELQFARRENSNLHHQVEEMLQKISPLQKCQEELGSLKAELEEKKSSLKLYQDTHQEYARVKEECLKSDAQKKKLEAKVKKLQEAAVKQTQDFKQLRNEKKILEKEFKKTQERLDEFSKQKNEKELRHIGTQISSDSYGSIDKRKVKLLLKELWLCVNTTHRLPGEGSRCVPEKPAKAITSSRVPGEDGTLPPTQGSPLRTSNVQTCLTKLSMEIKEDFLCQNVEKQSSSGTNCSSDHVFNENGNLEVLVQSHRDGGSTEFVDHDHFFDEDLQAAIDFFKLPPPLLSPVPSPPPMSSPHPGSLPSSFAPETYFGEYTDSSDNDSVQLRNSAECVSEDDTTESQNYFGSLRKNKGSGTWEEKPKSHEAIQALNTWEVNKVTTSGLETFTATLRESSATHSLVGEKHWTTASRSMSDRKRDILHETKTQMEVREMDKSVQTEKTIHKLTRGLCIERLSASPAQEKEAAPGKSELCSSPLGKRPLNELMESEGKTVLSKMMGSPKSEFTKWTRINEITSEPDRITVSGHFHRLSRELEKEKEDTQGFTLGESPESEDDDSGDGMDVAGLDIETSFSSSSTLVALSVGSNPQSSSGLDCGNDTDITTKVFSTEPHHSEHKLQTKTLNTLHLQSEPPECSIGGNNLENSLCALSPELGASNFNDQKSSGIEYTKVVKGLTKIHSLPRSVFMKATKDGQCESQDPRIELTLNKPDFTSLIGSQAALIKSGLGFVKSTSWHHSDLLRKGGEESLRAKSEHEQKTSHQLQKAMPFLQNRGPTPKPDLLRENNNPVEFKTTASVLPNQVSVITKQTRPEKVQSAKLEHLRPHRVEPTLVTENSGNKTGMSTVAKCDGERDDTTQNITEVAAVKSISPEVSASRRKLDFNSPGGSSPVENSDCSTNSRLSFSPENILIQNQDIVREAAVQGDGQKQRQPQATDLDSSGTHGSEMLPATEVTVSGGFSVEETSCGDTGRSGGEALAVANDSTSTPQNANGLWKLKSTTPGGALPECFGTTDTTFSSAFCRKHGETQDTSQSSLPGTLHCYTGIREGGDDTEVESEAFSCSEGSEQQDAPDDSQKNLGDTDAAVAEVRPSLEVGYLTSALQDFNISTFSELDRLSTSEVVMFLESCQLGDYSSG
Regarding B1, the binding result in test [1] and in test [2] was “no binding” each time.
